Laboratory results from PubChem BioAssay AID540317 (National Center for Advancing Translational Sciences (NCATS), 2011).
Hit rate of the full screen: of about 390,000 compounds, about 2,200 (0.56%) were called active. The inconclusive results got no clear call from the source; some entries with a clear call stand among them for comparison. The call rests on the fitted dose curve; in most records, active means well fitted inhibition curve with a large enough effect; inconclusive means small, poorly fitted or top-dose-only effect; inactive means no such curve, though single readings can be large or run the other way. Where the call is inconclusive, the potency comes from a doubtful curve fit.

These molecules were tested against Chromobox protein homolog 1 (Homo sapiens) (UniProt P83916) (assay: HTS for Inhibitors of HP1-beta Chromodomain Interactions with Methylated Histone Tails). Settings: AlphaScreen HP1-beta / biotin-H3K9me3 peptide binding; series mostly up to 114 µM.
Sequence of UniProt P83916 (P83916 whole entry, looked up): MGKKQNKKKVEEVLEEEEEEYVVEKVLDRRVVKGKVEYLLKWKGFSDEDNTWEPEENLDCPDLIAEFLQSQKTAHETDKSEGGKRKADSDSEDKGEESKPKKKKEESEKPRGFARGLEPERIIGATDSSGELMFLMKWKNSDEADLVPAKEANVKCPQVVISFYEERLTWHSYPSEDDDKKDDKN
Summary of the method: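 HP1-beta protein (50 nM final) preincubated 30 min at room temperature with biotinylated H3(1-18)K9me3 peptide (50 nM) in PBS pH 7.4, 0.01% Tween-20, then compound added for 30 min. AlphaScreen streptavidin donor/nickel chelate acceptor beads (10 ug/mL final), 30 min dark, luminescence read.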
Further: nearly all actives have a fitted effect of over 70% in size.
Potency means the concentration at half of the fitted maximal effect; tags describe the fitted curve by direction and shape.

Structure (SMILES)	Potency
Cc1ccc(-n2nc(C)c3c(C)cc(=O)n(CC(=O)NC(C)c4ccccc4)c32)cc1 (stereo not given)	inactive
Cc1cccc(N=Nc2c(C)[nH]n(-c3ccccc3)c2=O)c1	inconclusive: 3.98 µM [inhibitor, full curve]
Nc1nnc(SC2CCCC2)s1	inconclusive: 39.8 µM [inhibitor, single point]
O=S(=O)(c1ccc(Cl)cc1)c1nnn2c1nc(NCc1ccc3c(c1)OCO3)c1sccc12	inactive
CCc1cccc(C)c1NC(=S)NCCc1c(C)[nH]c2ccc(C)cc12	inconclusive: 20 µM [inhibitor, full curve]
Oc1ccc(C[C@H]2CNCCN2CCc2cccc(F)c2)cc1	inactive
CC(=O)c1ccc(NC(=O)CCn2c(=S)oc3ccccc32)cc1	inactive
Cc1cc(/C=C2\SC(=S)N(C)C2=O)c(C)n1-c1ccc(O)cc1	inconclusive: 44.7 µM [inhibitor, partial curve]
CCCCOc1ccc(C2=CSC3=NCCN23)cc1[N+](=O)[O-]	inactive
N=C1/C(=C/c2cccn2CCOc2ccccc2)C(=O)N=C2SC=C(c3ccccc3)N12	inactive
CC(=NNC(=S)Nc1ccc(C)cc1)c1ccccn1	inconclusive: 8.91 µM [inhibitor, full curve, poor fit]
Cc1ccc(C2CC(C(F)F)n3ncc(C(=O)Nc4c(C)nn(Cc5c(F)cccc5Cl)c4C)c3N2)cc1 (stereo not given)	inconclusive: 79.4 µM [inhibitor, single point]
CCN(CC)CCNC(=O)c1[nH]c2ccc(OCc3ccccc3)cc2c1C	inconclusive: 50.1 µM [inhibitor, partial curve]
O=[N+]([O-])c1ccc(NC2CCN(Cc3ccccc3)CC2)c([N+](=O)[O-])c1	inconclusive: 35.5 µM [inhibitor, partial curve]
O=C(CN1CCN(C/C=C/c2ccccc2)CC1)Nc1cc([N+](=O)[O-])ccc1Cl	inconclusive: 8.91 µM [inhibitor, partial curve, poor fit]
COC(=O)C(C)Sc1ccc2nnc(-c3ccccc3)n2n1 (stereo not given)	inactive
CCc1ccc(C(=O)CC2(O)C(=O)N(Cc3ccc(C)cc3)c3ccccc32)cc1 (stereo not given)	inconclusive: 11.2 µM [inhibitor, full curve]
COc1ccc(C(=O)NCC2(c3ccccc3)CCOCC2)cc1[N+](=O)[O-]	inconclusive: 39.8 µM [inhibitor, single point]
CC(C)OCCCN1C(=O)c2[nH]nc(-c3ccccc3O)c2C1c1ccccc1F (stereo not given)	inactive
O=C(O)CCc1nn2c3ccccc3n(Cc3ccccc3F)c2nc1=O	inconclusive: 44.7 µM [inhibitor, partial curve]
CCN(CC)c1ccc(NC(=O)COc2ccc(-n3cnnn3)cc2)cc1	inconclusive: 50.1 µM [inhibitor, partial curve]
Cc1ccc(Nc2nc(-c3cccnc3)cs2)cc1C	inactive
Cc1cc(C)cc(NC(=O)Cn2c(=O)n(-c3ccc(C)c(C)c3)c(=O)c3oc4ccccc4c32)c1	inactive

Structure (SMILES)	Potency
CN(C)c1ccc(/C=C2\N=C(c3ccc(Cl)c([N+](=O)[O-])c3)NC2=O)cc1	inconclusive: 39.8 µM [inhibitor, partial curve, poor fit]
CN(C)CCCn1c(-c2ccc(Cl)cc2)csc1=Nc1ccccc1	inconclusive: 39.8 µM [inhibitor, partial curve]
CCOC(=O)c1c(C)oc2nc(C)nc(NCCc3ccc(C)cc3)c12	inactive
CCS(=O)(=O)n1nc(-c2ccccc2)nc1SC	inactive
Cc1cccc(-c2cc(C(=O)N/N=C/c3cccnc3)c3ccccc3n2)c1	inconclusive: 89.1 µM [inhibitor, single point]
O=C(c1cc(COc2ccc(F)cc2Cl)on1)N1CCN(C2CCCC2)CC1	inactive
Cc1c(C)n(Cc2ccccc2)c2ccc(C(=O)N3CCN(c4ccccc4)CC3)cc12	inconclusive: 50.1 µM [inhibitor, partial curve, poor fit]
CC(C)Oc1ccc(C(=O)N(Cc2ccc(N(C)C)cc2)Cc2ccco2)cc1	inconclusive: 15.8 µM [inhibitor, full curve]
COC(=O)CN(C#N)c1nc(C)cc(C)n1	inactive
Cc1ccc(OCC(=O)NCC(=O)OCc2cc(=O)n3nc(C(C)C)sc3n2)cc1	inconclusive: 89.1 µM [inhibitor, partial curve, poor fit]
COc1cc2nc(C)sc2cc1SC	inconclusive: 35.5 µM [inhibitor, partial curve, poor fit]
COc1ccc(-c2cc(C(=O)NC(Cc3c[nH]c4ccccc34)C(=O)O)c(C)o2)cc1OC (stereo not given)	inconclusive: 39.8 µM [inhibitor, single point]
NC(=O)C1CCN(Cc2ccc(OCc3ccccc3)cc2)CC1	inconclusive: 56.2 µM [inhibitor, single point]
CCOc1ccc(NC(=O)c2sc(-n3nc(C)c(CCC(C)C)c3C)nc2C)cc1	inactive
CCC1CCc2[nH]nc(C(=O)O)c2C1 (stereo not given)	inactive
Cc1nnc(-c2ccc(Oc3ccc(C)c(C)c3)c([N+](=O)[O-])c2)o1	inconclusive: 25.1 µM [inhibitor, single point]
CCC(C)Nc1nc2c(c(=O)[nH]c(=O)n2C)n1Cc1ccc(F)cc1 (stereo not given)	inactive
Cc1ccccc1Nc1c(-c2ccc(N3CCOCC3)cc2)nc2cccc(C)n12	inconclusive: 15.8 µM [inhibitor, full curve]
CCc1ccc(CN2CCN(C(=O)c3ccco3)CC2)cc1	inconclusive: 20 µM [inhibitor, full curve]
CC(C)c1ccc(C2CC(=O)N3CN(C4CCCCC4)CSC3=C2C#N)cc1 (stereo not given)	inconclusive: 14.1 µM [inhibitor, full curve, poor fit]
CCOc1ccc2nc(NC3=NC(c4ccc(OC)cc4)CC(=O)N3)nc(C)c2c1 (stereo not given)	inconclusive: 79.4 µM [inhibitor, partial curve, poor fit]
OCC1OC(n2cnc3c(=S)nc[nH]c32)C(O)C1O (stereo not given)	inconclusive: 25.1 µM [inhibitor, single point]
